Results taken from PubChem BioAssay AID504832 (National Center for Advancing Translational Sciences (NCATS), 2011).
Screen size: about 310,000 compounds; about 18,000 (5.8%) were called active. This list was built around the results that the source calls inconclusive (neither active nor inactive); the mix of calls is not that of the screen. Calls come from the whole dose curve; as a rule, active = well fitted inhibition curve with a large enough effect; inconclusive = small, poorly fitted or top-dose-only effect, or another doubt; inactive = no such curve, though single readings can be large or run the other way. Potencies of inconclusive entries are left out as doubtful fits.

Assay: Primary qHTS for delayed death inhibitors of the malarial parasite plastid, 48 hour incubation
Conditions: P. falciparum luciferase growth in erythrocytes; series mostly up to 28.7 µM; activity change, negative = inhibition: at the top concentration
In short: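 A one-generation exposure of luciferase-tagged malaria parasites in RPMI 1640/Albumax erythrocyte culture, 37 C and 5% CO2. Inhibition is inferred from decreased luminescence after adding detection reagent.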
% is set by controls: 0 for no effect and ±100 for the full control effect; potency is the fitted concentration of half-maximal effect; tags give direction and shape of the fitted curve.

Structure (SMILES)	activity change, negative = inhibition	Potency
CCOC(=O)C1(Cc2ccccc2C)CCCN(S(=O)(=O)CC)C1 (stereo not drawn)	inactive: 0%	
CC(=O)Nc1ccc(NC(=O)CSCCc2ccccn2)cc1		inconclusive [inhibitor, single point]
Cc1cccc2cc(CN(Cc3cccnc3)C(=S)NCCCN(C)C)c(=O)[nH]c12		inconclusive [inhibitor, partial curve]
COC(=O)[C@]1(C)CCC[C@@]2(C)C3CC[C@@]4(C)C[C@]3(CCC21)CC(=O)N4C (stereo partly drawn)		inconclusive [inhibitor, partial curve, poor fit]
COc1ccc(NC(=O)CN2CCN(C3c4ccccc4-c4ccccc43)CC2)c(OC)c1		inconclusive [inhibitor, full curve]
CCN(CCCNC(=O)COc1cc(=O)n(CC)c2ccccc12)c1ccccc1		inconclusive [inhibitor, single point]
CCOc1ccccc1-n1nnnc1SCC(=O)NC(=O)Cc1ccccc1		inconclusive [inhibitor, single point]
Cc1ccc(-c2noc(N=O)c2NO)cc1		inconclusive [inhibitor, single point]
CC(C)C[C@H](NC(=O)OC(C)(C)C)c1nnc(SCC(=O)Nc2ccc(Br)cc2)o1		inconclusive [inhibitor, partial curve]
Cc1cc(C)c(NC(=S)N(CCN2CCCCC2)Cc2ccco2)c(C)c1	inactive: -0.78%	
COc1ccc(C(=O)C2CCCN(C(=O)c3cccnc3OC)C2)c(C)c1 (stereo not drawn)		inconclusive [inhibitor, partial curve]
CN(Cc1cccnc1)Cc1c(C(=O)N2CCc3ccccc3C2)nc2ccc(Cl)cn12		inconclusive [inhibitor, partial curve, poor fit]
CN1CCN(c2c(F)cc3c(=O)c(C(=O)O)cn(CCF)c3c2F)CC1	inactive: -0.16%	
CS(=O)(=O)N1CCCC(C(=O)Nc2ccc(F)c(F)c2)C1 (stereo not drawn)	inactive: 23.3%	
Cn1c(SCC(=O)N2CCN(c3ccccc3)CC2)nnc1-c1ccncc1	inactive: -25.8%	
COc1ccc(-c2cc(C(=O)N(C)Cc3cccc(OC)c3OC)c3ccccc3n2)cc1OC		active: 9.28 µM
CC1(C)C(=O)OC(c2c(F)c(F)c(F)c(F)c2F)C2(CCCCC2)C1=O (stereo not drawn)		inconclusive [inhibitor, single point]
Cc1c(C#N)c(N)c(C(=O)c2ccccc2)n1Cc1ccccc1	inactive: -16.3%	
Cc1ccc([N+](=O)[O-])cc1NC(=O)C(C)NS(=O)(=O)c1ccc(F)cc1 (stereo not drawn)	inactive: -16.5%	
COc1cc(Cl)cc(CN2CCC(CCC(=O)NC3CC3)CC2)c1OC		inconclusive [inhibitor, single point]
CCc1c(C)sc(NC(=O)Cn2nc(C(F)(F)F)c3c2CCCC3)c1C#N	inactive: 20.4%	
c1ccc(C2COC(c3cccs3)=N2)cc1 (stereo not drawn)	inactive: -0.2%	
CCCn1c(-c2ccc(OC)cc2)nc2ccccc21		inconclusive [inhibitor, single point]

Structure (SMILES)	activity change, negative = inhibition	Potency
COc1cccc(NC(=O)c2ccccc2-c2nc(-c3ccc(Cl)cc3)no2)c1		inconclusive [inhibitor, single point]
Cc1ccc(C)c(S(=O)(=O)Nc2ccc(C(=O)NCCCN3CCOCC3)cc2)c1		inconclusive [inhibitor, partial curve, poor fit]
COC(=O)[C@]1(Cc2ccccc2)N[C@H](c2ccc(-c3ccc(OC)cc3)cc2)[C@@H]2C(=O)N(C)C(=O)[C@@H]21		inconclusive [inhibitor, single point]
O=C(CCC(=O)Nc1ccccc1)N/N=C/c1ccncc1		inconclusive [inhibitor, full curve, poor fit]
CCCC12CN3CC(C)(CN(C1)C3c1cccs1)C2=O (stereo not drawn)	inactive: 1.12%	
Cc1cc2ccccn2c1C(=O)c1ccc([N+](=O)[O-])o1	inactive: -28.4%	
CC1CCN(C2=NC(=O)/C(=C/c3cn(-c4ccccc4)nc3-c3cccc(S(=O)(=O)N(C)C)c3)S2)CC1		active: 7.38 µM
CCOC(=O)c1cccc(Nc2ncnc3ccccc23)c1		inconclusive [inhibitor, single point]
O/N=C/c1ccc2ccccc2n1	inactive: 151%	
Cc1cc(Cl)c(S(=O)(=O)N2CCCCCC2)cc1OCC(N)=O		inconclusive [inhibitor, partial curve, poor fit]
Cc1c(-c2ccncc2)oc2ccc(Br)cc2c1=O		active: 9.28 µM
COc1ccc(CC(NC(C)=O)C(=O)NC2CCN(c3c(Cc4ccccc4)c(C)nc4ncnn34)CC2)cc1OC (stereo not drawn)		active: 11.7 µM
Cc1cc(C)c(C)c(S(=O)(=O)N2CCC(C(=O)NCc3ccco3)CC2)c1C		inconclusive [inhibitor, partial curve, poor fit]
Cc1ccc(S(=O)(=O)N(CC(=O)N2CCC(C(N)=O)CC2)Cc2ccc(F)cc2)cc1		inconclusive [inhibitor, single point]
Cc1ccc(OCCNC(=O)c2ccc(C)o2)cc1		inconclusive [inhibitor, partial curve, poor fit]
CCCCOC(=O)c1cccnc1		inconclusive [inhibitor, single point]
O=C(COC(=O)COc1ccccc1[N+](=O)[O-])Nc1cccc(Br)c1	inactive: 19.7%	
COc1ccc(N(C(=O)c2ccco2)S(=O)(=O)c2cccs2)cc1		inconclusive [inhibitor, single point]
CCCCN(CCCC)C(=S)N/N=C/c1c(C)[nH]n(-c2ccccc2)c1=O		inconclusive [inhibitor, full curve]
O=S(=O)(NC1CCCC1)c1ccc(S(=O)(=O)N(Cc2cccs2)CC2CCCO2)cc1 (stereo not drawn)		inconclusive [inhibitor, partial curve, poor fit]
COc1ccc(S(=O)(=O)NC2CC(C)(C)NC(C)(C)C2)cc1C(C)C		inconclusive [inhibitor, partial curve]
CCN(Cc1ccccc1)C(=O)COC(=O)c1n[nH]c2ccccc12		inconclusive [inhibitor, single point]
Cc1cc(C)nc(N2CCN(C(=O)CCC(=O)Nc3nnc(C(C)C)s3)CC2)n1	inactive: -10.3%	

Structure (SMILES)	activity change, negative = inhibition	Potency
COc1ccc(Br)cc1S(=O)(=O)Nc1ccc(Cl)cn1		inconclusive [inhibitor, full curve, poor fit]
COc1ccc(-c2csc(NC(=O)CCn3cnc4ccccc4c3=O)n2)cc1OC		inconclusive [inhibitor, partial curve]
O=C(CCc1ccc(Oc2cc([N+](=O)[O-])cc([N+](=O)[O-])c2)cc1)NC1CCCC1		inconclusive [inhibitor, partial curve]
Cc1cccc([C@@H]2[C@@H]3C(=O)N(Cc4ccccc4)C(=O)[C@@H]3[C@]3(CC(C)C)C(=O)N(c4cccc(Cl)c4)C(=O)N23)c1		inconclusive [inhibitor, full curve]
COc1cccc(C(=O)N/N=C2\SCC(=O)N2Cc2ccc3c(c2)OCO3)c1		inconclusive [inhibitor, partial curve, poor fit]
COc1ccc(C(CNC(=O)C(CCSC)NC(=O)c2ccccc2Cl)N2CCCCC2)cc1 (stereo not drawn)		active: 7.38 µM
CCCOc1cc(C)c(S(=O)(=O)NCCOC)cc1C		inconclusive [inhibitor, partial curve, poor fit]
COc1ccc(N(CC(=O)O)S(=O)(=O)c2ccc(C)cc2)cc1Cl	inactive: 13%	
CC(C)n1cc(C(=O)NC2CC(C)(C)Cc3c2cnn3-c2ccccc2)cn1 (stereo not drawn)	inactive: 0.581%	
Cc1ccc(NC(=O)CSc2nc(=O)n(CCCN3CCOCC3)c3c2CCCC3)cc1		active: 13.1 µM
CCOc1cc(N2CCOCC2)c(OCC)cc1NC(=O)c1ccccc1C		inconclusive [inhibitor, partial curve, poor fit]
N=C1SCC(=O)N1/N=C/c1ccccc1	inactive: 69.2%	
CC(=O)c1cc(F)c(N2CCN(C(=O)COc3ccc(F)cc3)CC2)cc1C		inconclusive [inhibitor, partial curve, poor fit]
COc1ccc(C2(CNC(=O)c3cccc([N+](=O)[O-])c3)CCOCC2)cc1	inactive: 35.2%	
COCCn1cc(-c2csc(N)n2)c2ccccc21		inconclusive [inhibitor, single point]
O=c1[nH]c(C2CCN(S(=O)(=O)Cc3ccccc3)CC2)nc2c1nnn2Cc1cccc(Cl)c1		inconclusive [inhibitor, partial curve]
CCOC(=O)CC(=O)c1sc2c(c1N)c(=O)[nH]c(=O)n2-c1ccc(OC)cc1		inconclusive [inhibitor, partial curve]
Cc1ccc(S(=O)(=O)N2CCCOC2CNC(=O)C(=O)NCc2cccs2)cc1 (stereo not drawn)	inactive: -26.3%	
Cc1[nH]c2ccccc2c1C(=O)CN1CC=C(c2ccccc2)CC1		active: 11.7 µM
O=C(CC1SC(N2CCCCC2)=NC1=O)Nc1ccc(C(=O)NCCc2ccc(F)cc2)cc1 (stereo not drawn)		inconclusive [inhibitor, single point]
Cc1c(C)c2ccc(OC(C)C(=O)N3CC[C@@]4(O)CCCC[C@H]4C3)c(C)c2oc1=O (stereo partly drawn)		inconclusive [inhibitor, single point]
COc1ccc(OC)c(CN2CCN(C(=O)c3cc4ccccc4cc3O)CC2)c1		active: 4.65 µM
